Paper PMC6004359
These are yes or no findings as the source states them, for the method shown. Binding seen in cells or lysates may run through a third protein. Some entries that bind do so weakly or less than the wild type. For some assays here: Where a sequence is shown, tags or fusion partners need not be part of it.

Amino acid sequences for entries named in this document (tags omitted). A change or cut given only in a name is not applied to a line headed by its entry. Chains listed by the source or under a name are the forms on record and can include a tag or linker. Residues count along the entry.
UniProt Q6UX68: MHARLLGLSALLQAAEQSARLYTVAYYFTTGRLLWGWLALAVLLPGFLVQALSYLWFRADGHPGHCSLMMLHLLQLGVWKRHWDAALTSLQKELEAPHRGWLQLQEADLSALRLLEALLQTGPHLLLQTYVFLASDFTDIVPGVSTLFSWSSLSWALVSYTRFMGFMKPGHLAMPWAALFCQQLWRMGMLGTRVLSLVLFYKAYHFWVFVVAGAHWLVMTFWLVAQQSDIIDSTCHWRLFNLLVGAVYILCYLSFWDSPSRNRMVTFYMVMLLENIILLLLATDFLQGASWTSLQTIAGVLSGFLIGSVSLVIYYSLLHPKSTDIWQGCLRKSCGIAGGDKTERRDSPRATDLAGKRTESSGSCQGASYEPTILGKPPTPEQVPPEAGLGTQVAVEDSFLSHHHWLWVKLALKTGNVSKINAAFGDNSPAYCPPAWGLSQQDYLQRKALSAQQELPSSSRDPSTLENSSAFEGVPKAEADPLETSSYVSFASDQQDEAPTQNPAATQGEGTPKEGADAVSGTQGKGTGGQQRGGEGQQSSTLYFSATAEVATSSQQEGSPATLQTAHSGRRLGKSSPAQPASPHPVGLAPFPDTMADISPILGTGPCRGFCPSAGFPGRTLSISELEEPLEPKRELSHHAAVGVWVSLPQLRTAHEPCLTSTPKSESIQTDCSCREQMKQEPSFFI
wild-type KIT (transfected in COS1 cells) (P10721, residues 26-976): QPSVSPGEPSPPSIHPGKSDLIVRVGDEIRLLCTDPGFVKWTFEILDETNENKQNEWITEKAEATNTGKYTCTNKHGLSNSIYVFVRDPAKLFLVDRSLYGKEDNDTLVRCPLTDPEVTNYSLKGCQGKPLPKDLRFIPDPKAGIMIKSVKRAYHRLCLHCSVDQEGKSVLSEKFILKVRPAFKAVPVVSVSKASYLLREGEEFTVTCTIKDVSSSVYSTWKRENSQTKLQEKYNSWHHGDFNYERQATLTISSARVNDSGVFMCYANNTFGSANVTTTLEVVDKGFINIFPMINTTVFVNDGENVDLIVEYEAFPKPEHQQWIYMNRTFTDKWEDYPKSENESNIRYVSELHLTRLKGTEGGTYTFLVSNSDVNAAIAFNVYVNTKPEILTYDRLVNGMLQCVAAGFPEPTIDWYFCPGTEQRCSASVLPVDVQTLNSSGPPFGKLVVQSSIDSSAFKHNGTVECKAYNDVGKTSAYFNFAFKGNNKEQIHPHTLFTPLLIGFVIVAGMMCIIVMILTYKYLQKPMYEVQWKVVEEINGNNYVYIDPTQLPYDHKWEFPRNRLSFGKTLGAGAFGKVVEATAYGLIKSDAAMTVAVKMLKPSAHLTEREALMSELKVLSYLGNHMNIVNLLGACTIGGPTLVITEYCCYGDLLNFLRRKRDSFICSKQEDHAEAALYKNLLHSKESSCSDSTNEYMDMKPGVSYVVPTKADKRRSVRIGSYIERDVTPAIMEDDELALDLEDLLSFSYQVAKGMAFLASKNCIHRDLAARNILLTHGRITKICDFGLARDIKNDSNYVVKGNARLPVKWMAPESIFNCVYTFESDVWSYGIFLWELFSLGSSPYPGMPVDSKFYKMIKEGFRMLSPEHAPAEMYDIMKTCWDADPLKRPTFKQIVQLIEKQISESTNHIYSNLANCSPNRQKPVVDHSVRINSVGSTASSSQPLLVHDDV
KIT/D816V (transfected in COS1 cells) (P10721, form named): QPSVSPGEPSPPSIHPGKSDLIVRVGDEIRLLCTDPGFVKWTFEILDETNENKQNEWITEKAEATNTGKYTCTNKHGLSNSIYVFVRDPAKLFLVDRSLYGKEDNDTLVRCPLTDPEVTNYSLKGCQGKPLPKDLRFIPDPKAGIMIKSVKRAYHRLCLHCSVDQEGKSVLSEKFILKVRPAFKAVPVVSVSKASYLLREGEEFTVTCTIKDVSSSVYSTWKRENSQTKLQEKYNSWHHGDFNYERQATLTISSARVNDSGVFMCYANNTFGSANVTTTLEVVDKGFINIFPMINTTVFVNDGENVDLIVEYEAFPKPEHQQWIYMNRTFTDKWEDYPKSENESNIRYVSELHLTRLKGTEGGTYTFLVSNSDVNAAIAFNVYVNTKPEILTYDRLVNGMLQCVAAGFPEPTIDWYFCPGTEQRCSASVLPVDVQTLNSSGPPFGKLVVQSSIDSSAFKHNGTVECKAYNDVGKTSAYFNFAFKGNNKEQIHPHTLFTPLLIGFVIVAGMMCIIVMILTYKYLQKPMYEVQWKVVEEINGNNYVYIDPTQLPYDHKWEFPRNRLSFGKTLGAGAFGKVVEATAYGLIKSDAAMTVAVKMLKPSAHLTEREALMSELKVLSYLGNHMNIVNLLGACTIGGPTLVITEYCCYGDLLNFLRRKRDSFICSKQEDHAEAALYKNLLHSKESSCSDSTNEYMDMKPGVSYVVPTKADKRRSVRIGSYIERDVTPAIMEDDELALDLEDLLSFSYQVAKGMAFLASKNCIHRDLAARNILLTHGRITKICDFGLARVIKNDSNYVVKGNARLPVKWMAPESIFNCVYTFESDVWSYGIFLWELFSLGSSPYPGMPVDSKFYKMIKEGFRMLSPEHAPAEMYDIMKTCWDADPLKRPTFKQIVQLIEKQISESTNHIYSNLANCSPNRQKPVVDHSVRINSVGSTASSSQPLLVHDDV
KIT/D814V, endogenous in P815 cells (P05532-2, form named): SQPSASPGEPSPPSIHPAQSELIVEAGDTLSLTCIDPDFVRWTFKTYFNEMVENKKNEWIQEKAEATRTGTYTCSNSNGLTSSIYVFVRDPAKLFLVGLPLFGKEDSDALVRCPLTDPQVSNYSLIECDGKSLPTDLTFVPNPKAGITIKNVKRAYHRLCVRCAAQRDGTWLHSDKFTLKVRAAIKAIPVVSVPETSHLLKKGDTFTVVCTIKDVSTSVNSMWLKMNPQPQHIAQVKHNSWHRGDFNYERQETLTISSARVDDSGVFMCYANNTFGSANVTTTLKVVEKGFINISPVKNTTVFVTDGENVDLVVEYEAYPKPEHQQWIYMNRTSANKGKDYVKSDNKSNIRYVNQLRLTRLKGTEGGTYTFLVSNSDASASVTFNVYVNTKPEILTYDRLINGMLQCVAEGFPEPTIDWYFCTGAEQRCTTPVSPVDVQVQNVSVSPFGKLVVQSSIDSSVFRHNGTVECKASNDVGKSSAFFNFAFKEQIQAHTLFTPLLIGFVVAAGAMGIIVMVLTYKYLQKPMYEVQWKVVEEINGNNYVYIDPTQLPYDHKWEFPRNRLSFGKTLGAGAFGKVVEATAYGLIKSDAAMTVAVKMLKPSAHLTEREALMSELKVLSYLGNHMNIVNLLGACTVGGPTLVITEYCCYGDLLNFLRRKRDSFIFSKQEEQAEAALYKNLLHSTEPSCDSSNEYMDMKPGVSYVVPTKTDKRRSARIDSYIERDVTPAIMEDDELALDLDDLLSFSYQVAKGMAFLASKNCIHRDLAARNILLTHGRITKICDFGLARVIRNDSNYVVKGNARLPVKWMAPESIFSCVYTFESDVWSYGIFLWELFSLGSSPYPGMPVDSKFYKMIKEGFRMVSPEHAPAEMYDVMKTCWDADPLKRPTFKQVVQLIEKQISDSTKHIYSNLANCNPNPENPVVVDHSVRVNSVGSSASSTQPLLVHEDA

Key:
[1] = target: FLAG-tagged human XKR5 (human) (UniProt Q6UX68); assay: co-IP; COS1 cells co-transfected with FLAG-tagged XKR5 and KIT or KIT mutants (Fig. 2a: SCF for 2 min, 48 h after transfection); lysates immunoprecipitated with FLAG or KIT antibodies, blotted with KIT antibodies
[2] = target: T1, FLAG-tagged murine XKR5 (murine) (UniProt Q5GH66); assay: as above
T1 sequence: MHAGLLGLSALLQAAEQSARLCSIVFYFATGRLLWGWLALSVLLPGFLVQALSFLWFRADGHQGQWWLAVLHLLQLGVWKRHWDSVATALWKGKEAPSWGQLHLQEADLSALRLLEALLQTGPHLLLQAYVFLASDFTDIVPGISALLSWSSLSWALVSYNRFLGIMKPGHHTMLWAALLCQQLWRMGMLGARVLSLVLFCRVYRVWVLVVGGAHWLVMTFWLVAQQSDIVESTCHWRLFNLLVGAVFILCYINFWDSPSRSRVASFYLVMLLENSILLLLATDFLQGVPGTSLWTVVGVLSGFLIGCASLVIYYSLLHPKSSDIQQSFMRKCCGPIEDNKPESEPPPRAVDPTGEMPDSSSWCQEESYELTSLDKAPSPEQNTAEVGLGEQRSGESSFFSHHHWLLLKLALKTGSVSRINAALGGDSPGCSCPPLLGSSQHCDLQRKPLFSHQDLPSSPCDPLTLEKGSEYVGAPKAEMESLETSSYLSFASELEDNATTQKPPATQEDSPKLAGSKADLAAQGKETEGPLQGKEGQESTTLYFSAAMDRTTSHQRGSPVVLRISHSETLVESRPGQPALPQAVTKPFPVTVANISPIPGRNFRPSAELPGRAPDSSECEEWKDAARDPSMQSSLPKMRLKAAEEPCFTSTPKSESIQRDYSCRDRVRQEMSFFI

[3] = target: T2, XKR5, endogenous in P815 cells (mouse (endogenous in P815)) (UniProt Q5GH66); assay: co-IP; P815 cells lysed and immunoprecipitated with XKR5 antibody or rabbit IgG, SDS-PAGE and western blotting; endogenous proteins
T2 sequence: T1 sequence

| binding [1] | binding [2] | binding [3] | Substance |
| --- | --- | --- | --- |
| no binding | no binding | – | wild-type KIT (transfected in COS1 cells) (from UniProt P10721 26-976) (receptor) |
| – | – | binds | KIT/D814V, endogenous in P815 cells (from UniProt P05532-2 25-975) (receptor) |
| binds | binds | – | KIT/D816V (transfected in COS1 cells) (from UniProt P10721 26-976) (receptor) |
